Measured values from publication PMC6919601, “Identification of Plasmodium dipeptidyl aminopeptidase allosteric inhibitors by high throughput screening” (PLoS ONE, 2019).
The campaign covered roughly 110,000 compounds. About 230 (0.21%) showed an effect of 50% or more. Some of the results follow.

What follows are molecules tested against DPAP1 (Plasmodium falciparum, UniProt Q8IIJ9) (assay: primary screen, percent inhibition; read by cleavage of a fluorogenic dipeptide substrate; higher = more effect of the substance).
Design: species or system P. falciparum D10 trophozoite lysates; single well
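Also: 30 min substrate incubation versus DMSO and 10 µM JCP410 controls.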

Sequence of DPAP1 (Q8IIJ9 whole entry, looked up): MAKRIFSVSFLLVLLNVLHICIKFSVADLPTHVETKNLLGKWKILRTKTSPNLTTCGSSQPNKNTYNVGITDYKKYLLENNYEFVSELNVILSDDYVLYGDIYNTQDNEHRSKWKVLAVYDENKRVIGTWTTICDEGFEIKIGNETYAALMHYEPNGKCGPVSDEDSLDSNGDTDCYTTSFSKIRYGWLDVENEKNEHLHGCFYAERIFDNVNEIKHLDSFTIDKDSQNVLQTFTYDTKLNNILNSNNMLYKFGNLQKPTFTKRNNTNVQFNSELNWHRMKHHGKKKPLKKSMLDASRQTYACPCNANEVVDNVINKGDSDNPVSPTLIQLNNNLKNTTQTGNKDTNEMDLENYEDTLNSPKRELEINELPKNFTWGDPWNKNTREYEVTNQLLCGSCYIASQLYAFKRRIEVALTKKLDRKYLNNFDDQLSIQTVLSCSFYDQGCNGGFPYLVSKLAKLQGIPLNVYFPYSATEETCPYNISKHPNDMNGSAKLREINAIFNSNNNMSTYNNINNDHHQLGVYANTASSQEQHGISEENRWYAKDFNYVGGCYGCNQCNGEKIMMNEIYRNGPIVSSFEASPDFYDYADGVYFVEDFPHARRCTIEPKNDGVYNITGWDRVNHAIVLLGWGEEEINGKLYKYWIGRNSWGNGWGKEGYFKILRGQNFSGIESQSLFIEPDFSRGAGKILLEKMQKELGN

SMILES | % Inhibition @ 10 uM [%]
CCCCO/C(O)=C1/C(C)=NC(=S)NC1c1ccc(N(C)C)cc1 (stereo not drawn) | 0.345
CC(C)(C)C(=O)Nc1nc(-c2ccccc2)ns1 | -1.61
O=C1N=C(Nc2ccc(Cl)cc2)S/C1=C\c1ccc(C(=O)O)cc1 | 17.5
CCN1CCN(CCCNC(=O)Cn2ncc3c(C)n(Cc4ccccc4)c(C)c3c2=O)CC1 | 4.4
Cc1nn(C(C)C(=O)NCCc2cccs2)c(=O)c2nn(-c3ccccc3)c(C)c12 (stereo not drawn) | -2.87
Cc1ccc(S(=O)(=O)c2cc3c(=O)n4ccccc4nc3n(Cc3ccncc3)c2=N)cc1 | -2.6
COc1ccc(/C=C(/NC(=O)c2ccco2)C(=O)Nc2ccccc2C)cc1 | 3.74
O=C(O)C1CCCCC1C(=O)N1CCCCCC1 (stereo not drawn) | 1.96
CCC(C(=O)NCc1ccccc1)n1c2ccccc2c2cnnc(O)c21 (stereo not drawn) | -3.79
COc1ccc(CCN(C(=O)c2ccccc2)C2=CC3CCC(C2)N3C)cc1OC (stereo not drawn) | 3.65
COc1ccc(S(=O)(=O)Nc2cccc(N(C)S(C)(=O)=O)c2)cc1OC | -3.71
Cc1ccc(C2CC(C(F)(F)F)n3ncc(C(=O)O)c3N2)cc1 (stereo not drawn) | -6.41
COc1cccc(C(=O)Nc2ccc(C)c(C)c2)c1 | 0.661
COc1cccc(-c2nc(CS(=O)(=O)CC(=O)NCc3ccccc3OC)c(C)o2)c1 | -3.7
CCOC(=O)c1c(NC(=O)CCNS(=O)(=O)c2ccc(Cl)cc2)sc(C)c1C | 6.11
CC(C)Oc1ccc(C(=O)N2CCCc3ccccc32)cc1 | 0.0265
COc1ccc2ncc(S(=O)(=O)c3ccccc3)c(N3CC(C)CC(C)C3)c2c1 (stereo not drawn) | -8.02
Cc1c2cnn(CC(=O)NCCCN3CCCC3=O)c(=O)c2c(C)n1Cc1ccccc1F | -2.17
CCN1CCN(Cc2ccc(SC)cc2)CC1 | 2.47
CNC(=O)COc1ccc(-c2nn(C)c(=O)c3ccccc23)cc1 | 3.63
CC1CCN(C(=O)C2CCCCC2C(=O)O)CC1 (stereo not drawn) | 2.01
c1coc(CN2CN(c3nc4ccccc4s3)CN(c3nc4ccccc4s3)C2)c1 | 1.91
COc1cc(C=C2C(=O)N(C)C(=O)N(C)C2=O)cc(Br)c1O | 2.54
Cc1cc(C(F)F)nc2sc(C(=O)Nc3ccc4c(c3)OCO4)c(N)c12 | 10.8
Cc1nc2c(c(C)nn2C)c(C)c1CCC(=O)N1CCOCC1 | -2.45

SMILES | % Inhibition @ 10 uM [%]
O=C(Nc1ccc(-c2ccc([N+](=O)[O-])cc2)cc1)c1cccc([N+](=O)[O-])c1 | -4.31
OCC1CCCN(Cc2ccc(Cl)cc2)C1 (stereo not drawn) | -0.833
NC(=O)c1ccc(NC(=O)c2ccc(-c3ccccc3)cc2)cc1 | 2.51
CCc1c(C)sc(NC(=O)c2cc(OC)cc(OC)c2)c1C(N)=O | -1.44
Cc1ccc(OCC(=O)NCc2ccccc2)cc1 | -1.29
O=C1C2C3c4ccccc4C(c4ccccc43)C2C(=O)N1CCN1CCCCC1 (stereo not drawn) | -7.27
Cc1ccc(NC(=O)c2c(-c3ccccc3)noc2C)cc1Cl | -0.865
NC(=O)c1cc(S(=O)(=O)NCC2CCC(C(=O)NC3CCCCC3)CC2)cs1 (stereo not drawn) | -7.06
COc1ccc(CNC(=O)CCCn2c3ccccc3c3cnnc(O)c32)cc1 | -3.79
CCN(c1ccccc1)S(=O)(=O)c1ccc(NC(=O)c2ccco2)cc1 | -5.7
CC1CCCC(C)N1C(=O)Nc1ccccc1 (stereo not drawn) | -1.92
CCN(CC)CCCN(C)C(=O)c1nn(C)c2c1CSc1ccccc1-2 | 3.3
COc1nsnc1NS(=O)(=O)c1ccc(-n2c(S)nnc2-c2ccc3ccccc3n2)cc1 | 3.93
Cc1ccc(S(=O)(=O)Nc2ccc(S(=O)(=O)N(C)Cc3ccccc3)cc2)cc1 | 0.889
O=C(Cn1ncc2c(=O)oc3ccccc3c21)N1CCC2(CC1)OCCO2 | -6.62
Cc1ccc(N(CC(O)Cn2c3ccccc3c3ccccc32)S(C)(=O)=O)cc1 (stereo not drawn) | 8.05
CN(Cc1ccccc1)C(=O)C1CCN(S(C)(=O)=O)CC1 | -2.8
Cc1ccc(-n2ncc3c(NCC4CCCO4)ncnc32)cc1Cl (stereo not drawn) | 0.759
CCOc1ccc(/C=C2\N=C(c3ccc(OC)cc3Cl)OC2=O)cc1 | 2.28
O=S(=O)(c1ccc2nc(O)ccc2c1)N(CCO)Cc1ccccc1 | -4.18
COc1ccc(/C=C(\NC(=O)c2ccco2)C(=O)NCCO)cc1 | 1.01
O=C1NC(=S)N(c2ccc(Cl)cc2Cl)C(=O)/C1=C/c1ccc(Cl)cc1 | 18.2
Cc1c(C(=O)NC2CCCCC2)oc2ccc(S(=O)(=O)N(C)C3CCCCC3)cc12 | 13.3
O=C(CCc1ccccc1)n1nc(-c2cccnc2)nc1NCc1ccccc1 | 0.558
Cc1ccc(C)c(-n2nnc(-c3nc(-c4ccc5c(c4)OCO5)no3)c2N)c1 | -2.15

SMILES | % Inhibition @ 10 uM [%]
Cc1cc(SCc2ccccc2C)n2nc(C)nc2n1 | -0.414
CC1CCN(C(=O)CN2C(=O)c3ccccc3S2(=O)=O)CC1 | 1.1
FC(F)(F)c1cccc(N2CCN(Cc3cccnc3)CC2)c1 | -5.41
CC(C)(C)OC(=O)N[C@@H](CS(=O)(=O)Cc1ccccc1)C(=O)NCC#N | -6.56
COc1cc(Cl)c(S(=O)(=O)n2cnc3cc(C)c(C)cc32)cc1Cl | -6.44
Cc1ccc(NC(=O)C2c3ccccc3C(=O)N(C)C2c2cn(C)c3ccccc23)nc1 (stereo not drawn) | 5.74
COCCNC(=O)CN1N=C(c2ccc(OC)cc2)CCC1=O | -3.58
CCCc1nnc(O)c2c1nnn2Cc1ccccc1 | -4.91
c1cnc(NC2CCCCCCC2)nc1 | -5.62
CC(O)CN(Cc1ccc(Cl)cc1)CC(C)O (stereo not drawn) | -2.34
Cc1ccc(CNC(=O)CCc2c(C)nc3c4cccnc4nn3c2C)cc1 | -0.0115
N#CCNC(=O)[C@H](CSCc1ccccc1)NC(=O)c1ccc(-c2ccccc2)cc1 | -0.214
Cc1ccc(CN2C(=O)CN(C3CCC(C)CC3)C(=O)C2c2ccc(C)cc2)cc1 (stereo not drawn) | 1.27
CNS(=O)(=O)c1cn(CC(=O)Nc2nc3ccc(C)cc3s2)cc1S(=O)(=O)NC | 10.8
Cc1ccccc1Cn1c(=O)n(C(C)C)c(=O)c2oc3ccccc3c21 | 3.8
Cc1nn(CC(=O)N2CCN(C3CCCCC3)CC2)c(=O)c2nn(-c3ccccc3)c(C)c12 | -2.68
CC(=O)c1ccc(NC(=O)c2ccccc2Cl)cc1 | -1.62
Cc1cccc(N(C)C(=O)c2cnoc2C)c1 | -3.45
O=C(NCc1c(O)ccc2ccccc12)c1ccccc1 | -2.66
O=C(O)C1CC=CCC1C(=O)Nc1ccc(F)cc1 (stereo not drawn) | 0.35
FC(F)Oc1ccc(Cl)cc1C1C=C(c2ccc(Br)s2)Nc2ncnn21 (stereo not drawn) | -1.48
COc1ccc(C(=O)Nc2ccc3[nH]c(O)nc3c2)cc1 | -0.0953
Cc1cc(C)c(NS(=O)(=O)c2ccc(NC(=O)c3ccccc3C(=O)O)cc2)c(C)c1 | -2.28
COc1ccccc1C(=O)Nc1ccc(Cl)c(C(F)(F)F)c1 | -7.02
CCn1c2ccccc2c2cc(CNc3ccc(F)c(Cl)c3)ccc21 | -1.56

SMILES | % Inhibition @ 10 uM [%]
CC1=C(C(=O)Nc2cccnc2)C(c2cccnc2)n2nc(-c3cccs3)nc2N1 (stereo not drawn) | -4.77
CC(C)CNC(=O)C1CCN(S(=O)(=O)c2ccccc2)CC1 | 6.28
CCOC(=O)CN1CCc2cc(OC)c(OC)cc2C1 | 0.605
c1ccc(CCn2c(-c3ccco3)nc3ccccc32)cc1 | -7.83
CCN(CC)C(=O)CSc1nc(-c2ccccc2Cl)nc2c1Cc1c(CO)cnc(C)c1O2 | 8.05
Clc1ccc(-c2noc(CCCOc3ccccc3)n2)cc1 | -1.42
COc1ccc(CCNC2CC(=O)N(c3ccc(C)cc3)C2=O)cc1 (stereo not drawn) | -1.07
CCCNC(=O)N1Cc2ccccc2-n2cccc2C1c1ccccc1 (stereo not drawn) | -1.32
Cc1ccccc1C(=O)Nc1ccc(CC#N)cc1 | -3.72
O=C(Nc1c(C(=O)N2CCN(CCO)CC2)cnn1-c1ccccc1Cl)c1ccco1 | -4.72
CCOc1nc(-c2ccc(C)cc2)ccc1-c1noc(CC)n1 | 2.1
NS(=O)(=O)c1ccc(CCNC(=O)c2nc(S(=O)(=O)Cc3ccccc3)ncc2Cl)cc1 | 7.04
COc1ccc(CC(=O)Nc2ccccc2F)cc1 | -0.856
Cc1cc(/C=C2\C(=N)N3N=C(C(C)C)SC3=NC2=O)c(C)n1-c1ccc(F)cc1 | 1.96
O=C1c2ccc3c4c(ccc(c24)C(=O)N1c1ccccn1)C(=O)N(c1ccccn1)C3=O | -11.6
Cc1nn(Cc2cccc(C(=O)Nc3nc4ccc(S(C)(=O)=O)cc4s3)c2)c(C)c1Cl | 0.413
CC(C)(O)C(=O)/C=C/c1ccccc1 | -5.5
C=CCNC(=O)C1CC=CCC1C(=O)Nc1ccc(OC)cc1 (stereo not drawn) | 1.42
COc1ccccc1N1C(=O)NC(=O)/C(=C\c2ccc(Cl)cc2Cl)C1=O | 2.58
O=C1CCSc2c1cccc2C(=O)NCc1ccccn1 | -0.495
O=C(O)c1ccccc1Nc1ccc(F)cc1 | -0.891
CCCN(CCC)c1ccc([N+](=O)[O-])c2nonc12 | 4.15
COc1cc(C(=O)ON2C(=O)c3ccccc3C2=O)cc(OC)c1OC | 26.3
CCC1CCc2c(sc(NC(=O)c3cccc(OC)c3OC)c2C(N)=O)C1 (stereo not drawn) | 3.83
